# Reference: article PMC4336329 (PLoS ONE, 2015)
# In all, about 310,000 compounds went through this assay and about 14,000 (4.5%) showed an effect of 50% or more. Effects have a minus sign here. This is one part of the list.
# Biological target: human ether-à-go-go-related gene (hERG) potassium channel (human, UniProt Q12809)
# Experiment: primary screen, population patch clamp on CHO cells stably expressing hERG
# 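Note: peak tail current of the secondary pulse compared with the same well before compound.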
# human ether-à-go-go-related gene (hERG) potassium channel, sequence (Q12809 whole entry, looked up): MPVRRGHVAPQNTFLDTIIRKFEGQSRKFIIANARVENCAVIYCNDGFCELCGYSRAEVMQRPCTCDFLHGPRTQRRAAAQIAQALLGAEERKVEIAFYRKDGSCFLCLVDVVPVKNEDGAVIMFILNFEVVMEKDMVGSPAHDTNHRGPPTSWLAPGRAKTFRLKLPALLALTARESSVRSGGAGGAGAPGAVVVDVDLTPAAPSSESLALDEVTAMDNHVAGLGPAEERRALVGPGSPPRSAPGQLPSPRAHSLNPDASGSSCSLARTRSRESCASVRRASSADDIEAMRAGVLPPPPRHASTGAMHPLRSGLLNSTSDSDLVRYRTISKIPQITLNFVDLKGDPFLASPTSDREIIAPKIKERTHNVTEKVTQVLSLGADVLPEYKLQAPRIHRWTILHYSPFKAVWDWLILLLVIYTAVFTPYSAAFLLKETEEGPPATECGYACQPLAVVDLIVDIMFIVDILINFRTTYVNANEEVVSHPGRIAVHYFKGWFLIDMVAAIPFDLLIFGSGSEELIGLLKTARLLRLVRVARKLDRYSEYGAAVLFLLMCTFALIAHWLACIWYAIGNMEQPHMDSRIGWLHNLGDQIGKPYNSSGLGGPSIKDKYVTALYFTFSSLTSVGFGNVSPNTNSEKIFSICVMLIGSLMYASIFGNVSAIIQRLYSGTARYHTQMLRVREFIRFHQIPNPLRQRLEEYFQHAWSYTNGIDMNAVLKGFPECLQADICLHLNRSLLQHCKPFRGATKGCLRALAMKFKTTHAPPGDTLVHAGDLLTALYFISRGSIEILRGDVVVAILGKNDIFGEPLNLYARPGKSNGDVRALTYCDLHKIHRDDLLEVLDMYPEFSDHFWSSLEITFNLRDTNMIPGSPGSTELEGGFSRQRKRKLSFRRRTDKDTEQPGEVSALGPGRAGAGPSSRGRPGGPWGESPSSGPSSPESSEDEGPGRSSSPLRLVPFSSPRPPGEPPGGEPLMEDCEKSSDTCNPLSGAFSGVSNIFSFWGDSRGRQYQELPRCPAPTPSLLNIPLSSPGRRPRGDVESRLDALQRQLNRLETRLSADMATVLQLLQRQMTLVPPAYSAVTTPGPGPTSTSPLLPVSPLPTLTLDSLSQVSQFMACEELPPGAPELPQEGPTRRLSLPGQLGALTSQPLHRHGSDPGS
row,Structure (SMILES),"hERG current change (%, negative = inhibition) at 10uM"
1,COc1ccc(OC)c(S(=O)(=O)N(C)CC(=O)N2CCOCC2)c1,11.3%
2,Cc1nn(-c2ccc(F)cc2)c(Cl)c1/C=C(\CCC(=O)O)c1nc2ccccc2s1,-5.36%
3,O=C1NC2c3ccccc3CC2O1 (centres unmarked),18.2%
4,COC(=O)c1ccccc1NC(=O)CSc1nncn1-c1cccnc1,-11.7%
5,CN1CCNC(=O)C1CC(=O)O (centres unmarked),-1.72%
6,Cn1c(=O)c2c(SCC(=O)N3CCCC3)nc(-c3ccccc3)nc2n(C)c1=O,6.03%
7,O=S(=O)(c1cccc(F)c1)N1CCN(Cc2cc3c(cc2Br)OCCO3)CC1,12.6%
8,CC(CCc1ccccc1)NC(=O)CN(C)Cc1ccc(F)cc1 (centres unmarked),-23.6%
9,CCCCC(=O)N(CCOC)c1nnc(-c2ccc(OC)cc2)s1,7.51%
10,O=C(NCc1ccccc1)C(=O)NCC1OCCN1S(=O)(=O)c1ccc(Br)cc1 (centres unmarked),-13.3%
11,O=C(NC1CCS(=O)(=O)C1)C1CCCCN1S(=O)(=O)c1ccc(Cl)cc1 (centres unmarked),-6.74%
12,Cc1c(C(=O)OCC(=O)N2CC(C)CC(C)C2)oc2ccccc12 (centres unmarked),-13.7%
13,COc1ccc(N2CCN(c3oc(Cc4cccc5ccccc45)nc3C#N)CC2)cc1,-6.4%
14,O=c1c2cc(N3CCOCC3)ccc2[nH]c(=S)n1Cc1cccc(Cl)c1,1.02%
15,Nc1ccc(O)c(C(=O)O)c1,-7.83%
16,COc1ccc(S(=O)(=O)NC2CC(=O)N(c3ccc(C)c(C)c3)C2)cc1 (centres unmarked),8.13%
17,CCOCCn1c(CN2CCN(C(=O)c3ccco3)CC2)nc2c1c(=O)n(C)c(=O)n2C,-3.37%
18,C=CCc1c(C)nc(-c2ccccc2)nc1N/N=C/c1ccccc1,-32.5%
19,CCn1c(COc2ccc(C)cc2)nnc1SCC(=O)NNC(=O)c1ccc(OC)cc1,4.97%
20,Fc1ccc(NC(=S)Nc2ccc(Cl)cc2)cc1,10.1%
21,Cc1ccc(C(=O)Nn2cnnc2)cc1[N+](=O)[O-],-7.48%
22,C[C@]12N[C@H](Cc3ccccc31)c1ccccc12.O=C(O)/C=C\C(=O)O,-3.29%

row,Structure (SMILES),"hERG current change (%, negative = inhibition) at 10uM"
1,COc1ccc(OC)c(NS(=O)(=O)c2ccc(NC(=O)c3ccc(NS(C)(=O)=O)cc3)cc2)c1,14.2%
2,CC1(C)Cc2c(c(-c3ccco3)nc3sc4c(NCCCO)ncnc4c23)CO1,5.78%
3,NS(=O)(=O)c1cc(C(=O)OC2CCOC2=O)ccc1Cl (centres unmarked),12.7%
4,CCOc1ccc(NC(=O)c2ccc(CN3CCc4ccccc4C3)cc2)cc1,0.805%
5,Cc1ccc(N2CCN(Cc3ccccc3)CC2=O)c(C)c1.O=C(O)C(=O)O,-4.36%
6,O=C(COc1ccccc1Cl)Nc1ccc(NC(=O)c2ccco2)cc1,-42.6%
7,O=C(N/N=C/C(Br)=C/c1ccccc1)C1CC1,32.2%
8,CC(=O)Nc1cc2c(=O)n(Cc3ccccc3)c(C)nc2cc1N1CCOCC1,1.32%
9,OC(CC#CCN1CCCC1)(c1ccccc1)c1ccccc1,-13.5%
10,CCOC(=O)C(=O)/C(C#N)=C/Nc1ccc(F)cc1,15.6%
11,Cc1cccc(C(=O)N/C(=C/c2ccco2)C(=O)N2CCCCCC2)c1,8.38%
12,CN(C)C1=C(C#N)C(c2ccccc2)=NP(N(C)C)(N(C)C)=N1,-0.483%
13,COc1ccc(NC(=O)CSc2ncn(-c3ccccc3)n2)cc1Cl,-4.21%
14,CC1CCCC(C)N1C(=O)c1ccc(CS(=O)(=O)c2ccccc2)cc1 (centres unmarked),-2.22%
15,O=C1c2ccc(Oc3ccc([N+](=O)[O-])cc3)cc2C(=O)N1CCCO,-60.8%
16,CCOC(=O)C(Sc1nn(C)c(=S)s1)C(C)=O (centres unmarked),4.21%
17,COCCC(=O)NNS(=O)(=O)c1ccc(Cl)cc1,15.2%
18,CCOCCCN(C(=O)Cn1nnc(-c2ccc(C)o2)n1)C(C(=O)NC1CCCC1)c1ccco1 (centres unmarked),-6.98%
19,O=S1CC/C(=N\O)c2ccccc21 (centres unmarked),12.8%
20,COc1cc(OC)c2ccc(=O)oc2c1C(CCN1CCCC1)c1ccc2c(c1)OCO2 (centres unmarked),-56.7%
21,COC(=O)Cn1cc(C=C2C(=O)N(C)C(=O)N(C)C2=O)c2ccccc21,19.2%
22,CCN(CC)C(=O)CSc1nc2c(sc(=S)n2CC)c(=O)n1-c1ccccc1,-66.9%
